Screen size: about 110,000 compounds; about 230 (0.21%) showed an effect of 50% or more. The list shows a part of the results.
molecular target: DPAP1 (Plasmodium falciparum, UniProt Q8IIJ9); assay: primary screen, percent inhibition; read by cleavage of a fluorogenic dipeptide substrate; higher = more effect of the substance; set-up: species or system P. falciparum D10 trophozoite lysates; single well
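Note: 30 min substrate incubation versus DMSO and 10 µM JCP410 controls.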

Sequence of DPAP1 (Q8IIJ9 whole entry, looked up): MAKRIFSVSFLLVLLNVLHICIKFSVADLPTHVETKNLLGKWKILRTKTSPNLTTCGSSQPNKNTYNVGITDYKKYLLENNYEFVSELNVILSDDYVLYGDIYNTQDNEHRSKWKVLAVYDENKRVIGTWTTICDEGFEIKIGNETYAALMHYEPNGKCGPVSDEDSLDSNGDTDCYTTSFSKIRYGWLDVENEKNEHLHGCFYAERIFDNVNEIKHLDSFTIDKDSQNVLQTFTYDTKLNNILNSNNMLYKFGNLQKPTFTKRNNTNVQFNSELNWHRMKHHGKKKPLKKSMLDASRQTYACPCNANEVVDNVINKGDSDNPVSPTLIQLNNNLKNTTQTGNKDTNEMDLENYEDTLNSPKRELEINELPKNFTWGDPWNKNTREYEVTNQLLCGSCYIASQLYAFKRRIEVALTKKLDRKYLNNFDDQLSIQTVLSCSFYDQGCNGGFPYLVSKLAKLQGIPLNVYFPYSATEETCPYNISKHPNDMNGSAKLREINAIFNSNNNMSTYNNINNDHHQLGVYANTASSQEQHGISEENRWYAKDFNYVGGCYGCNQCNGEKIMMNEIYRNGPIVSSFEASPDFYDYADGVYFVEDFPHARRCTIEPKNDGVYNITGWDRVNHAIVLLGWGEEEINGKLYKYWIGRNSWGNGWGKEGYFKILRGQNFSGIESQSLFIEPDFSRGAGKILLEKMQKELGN

SMILES	% Inhibition @ 10 uM [%]
CNCCCCOc1cccc2c(=O)c3ccccc3oc12	-0.305
Cc1ccc(C2=NN(S(C)(=O)=O)C(c3cc4cc5c(cc4nc3Cl)OCCO5)C2)cc1 (stereo not shown)	2.76
O=C1NC(c2ccccc2Cl)Nc2sc3c(c21)CCCC3 (stereo not shown)	-0.769
C=CCc1cc(/C=C2/C(=N)N3C(SC)=NSC3=NC2=O)cc(OC)c1O	2.59
O=C(O)C1C2C=CC(C2)C1C(=O)N1CCN(C(c2ccccc2)c2ccccc2)CC1 (stereo not shown)	-5.46
CSCC[C@@H](C(=O)NC(C)c1cccs1)N1Cc2ccccc2C1=O (stereo partly shown)	1.26
COc1ccc2cc(-c3nc4cc(C)ccc4[nH]3)c(=O)oc2c1	4.93
O=C(c1ccc(CS(=O)(=O)c2cccc(C(F)(F)F)c2)o1)N1CCN(c2ccccn2)CC1	-4.96
CC(NC(=O)c1sc2nc(-c3ccncc3)ccc2c1N)C12CC3CC(CC(C3)C1)C2 (stereo not shown)	7.98
NS(=O)(=O)c1ccc2c(c1)C1C=CCC1C(c1cccc3ccccc13)N2 (stereo not shown)	-1.37
COc1ccc(-c2noc(CN(C)S(=O)(=O)c3ccc(C)cc3)n2)cc1OC	5.5
Cc1ccc(Nc2ccccc2C(=O)O)cc1C	12
CC(C)CCNC(=O)CCC(=O)N1CC2CC(C1)c1cccc(=O)n1C2 (stereo not shown)	0.623
Cc1cc(S(=O)(=O)Oc2cccc3cccnc23)c(Cl)cc1Cl	-0.597
NC(=O)CSc1nc2ccccc2n1Cc1ccccc1	-5.85
COc1ccc(Cn2c(SCC(=O)Nc3cc(C)[nH]n3)nc3nccnc3c2=O)cc1	4.73
CCOCCCNCc1ccc(OC(C)C)c(OC)c1	0.387
Clc1ccc(N2CCN(Cc3c[nH]c4ccccc34)CC2)cc1	0.708
COCCCN1C(=S)NC2CC1(C)Oc1ccccc12 (stereo not shown)	-9.78
Cc1cc(C)c2nc(N3CCC(C(=O)NC4CCCCCC4)CC3)sc2c1	-1.58
C=CCNC(=O)c1cc2c(=O)n3cccc(C)c3nc2n(CCN2CCOCC2)c1=N	3.6
O=C(NCCc1ccc(Cl)cc1)C1CCN(S(=O)(=O)c2cccc3cccnc23)CC1	1.9
COc1ccc(C)cc1N(CC(=O)N[C@H](C)c1ccccc1)S(C)(=O)=O	6.07
COc1ccccc1-n1cnc2cc(C(=O)NCC3CCCO3)ccc21 (stereo not shown)	1.2
O=C(c1ccc(Cl)c([N+](=O)[O-])c1)N1CCN(c2ccccc2)CC1	-1.22

SMILES	% Inhibition @ 10 uM [%]
CCO/C(O)=C1/C(C)=Nc2nc(SC)nn2C1c1ccc(-c2ncc(-c3ccccc3)o2)cc1 (stereo not shown)	-3.13
c1ccc2c(c1)CCC(NCc1ccncc1)C2 (stereo not shown)	5.03
CN(CCNC(=O)c1noc2c1COc1ccccc1-2)C1CCCCC1	2.73
COc1ccc(Cl)cc1C(=O)Nc1c2c(nn1C(C)(C)C)CS(=O)(=O)C2	0.566
CCC(C)n1c(=O)c2sccc2n2c(CCCC(=O)N3CCC(C(N)=O)CC3)nnc12 (stereo not shown)	-4.17
CC(C)(C)OC(=O)N1CCC(c2c(C(=O)O)cnn2C(C)(C)C)CC1	2.39
Cn1c(C(=O)N2CCCC(C(=O)NCc3ccccn3)C2)cc2sccc21 (stereo not shown)	-7.84
CN(C)C(=O)[C@@H]1OC(C)(C)O[C@H]1C(=O)N(C)C	-5.69
COc1cc(OC)cc(C(=O)NCCCCc2ccccc2)c1	-2.45
Cc1nc2c(-c3ccccc3)c(C)nn2c(C)c1CCC(=O)NC(C)C	-4.1
COc1ccc(CC(=O)NC2CCCCC2)cc1	-6.91
COc1ccc(NC(=S)Nc2ccccc2)cc1	1.33
CCOc1ccccc1NC(=O)C1=C(C)NC(=O)NC1c1cccc(Cl)c1 (stereo not shown)	-4.39
O=C1CSc2nnc(C3COc4ccccc4O3)n2N1 (stereo not shown)	4.47
Cc1nc2ccc(S(=O)(=O)N(C)CC(=O)N3CCCCCC3)cc2s1	-0.522
Cc1ccc(CNc2ncnc3c2cnn3C)cc1	5.99
O=C(O)C(Cc1c[nH]c2ccccc12)Nc1ncnc2sc3c(c12)CCC3 (stereo not shown)	6.7
Clc1ccc(-c2nnc3sc(-c4ccccc4)nn23)cc1	18.2
COC(=O)c1c(C)n(CCc2ccccc2)c2c1cc(O)c1ccccc12	3.72
O=C(c1cc2nc(-c3cccs3)cc(C(F)(F)F)n2n1)N1CCOCC1	-1.5
N#CCNC(=O)C(CCSc1ccccc1)NC(=O)c1ccccc1 (stereo not shown)	-0.214
CSc1nnc(-c2ccccc2)c(-c2ccccc2)n1	-3.77
N#C/C(=C\c1cccnc1)c1nc2ccccc2s1	1.08
COc1cc(OC)cc(C(=O)N2CCN(Cc3cccc(Br)c3)CC2)c1	-8.58
COc1cc(OC)c(OC)cc1CN1CCN(Cc2cccc(Cl)c2)CC1	-3.92

SMILES	% Inhibition @ 10 uM [%]
Cc1ccc(S(=O)(=O)N2CCC(C(=O)NCCCO)CC2)cc1	-3.74
Brc1ccc(CN2CCSCC2)o1	-1.07
CC(Oc1ccc2c3c(c(=O)oc2c1)CCC3)C(=O)c1ccccc1 (stereo not shown)	-1.26
CCO/C(O)=C1/C(C)=NC2=C(C(=O)CCC2)C1c1ccc(Cl)cc1 (stereo not shown)	-1.78
CC1=C(C(=O)Nc2ncccc2C)C(c2ccc(F)cc2)C2=C(O)CCCC2=N1 (stereo not shown)	1.43
O=C1C(/C=N/Cc2cccs2)=C(O)c2ccccc21	-0.467
N#CCNC(=O)[C@H](C[C@H]1CC[C@H](O)CC1)NC(=O)c1ccccc1	1.35
Cc1ccc2c(c1)-c1c(cnn1CC(=O)NCc1ccc3c(c1)OCO3)CO2	-2.67
Cc1ccc(C(=O)Nc2cccc(C#N)c2)cc1Br	0.727
CC(C)C[C@H](NC(=O)N1CCc2ccccc2C1)C(=O)NCC#N	-6.98
Cc1ccc(C2CC(=O)N3CN(C(C)c4ccccc4)CSC3=C2C#N)cc1 (stereo not shown)	10.6
CCNc1nc(NCC)n2c(SCC(=O)c3ccc(OC)cc3F)nnc2n1	-2.63
COc1ccc(N2C(=O)C3CC=CCC3(C)C2=O)cc1 (stereo not shown)	-0.512
CC1CCCN(c2nc3c(S(=O)(=O)c4ccccc4)nnn3c3ccc(Cl)cc23)C1 (stereo not shown)	-1.37
O=S(=O)(c1ccc(-c2csc(Nc3ccc(F)cc3)n2)cc1)N1CCCC1	-2
COC(=O)c1cc(-c2ccc(C)cc2)[nH]n1	-3.21
COc1ccccc1N(CC(=O)Nc1cccc(Br)c1)S(=O)(=O)c1ccc(C)cc1	2.95
O=C(ON1C(=O)CCC1=O)c1ccccc1	18
COC1=CC(=O)C=C(OC)C12CC(C)(C)N=C2SC	-5.3
O=C(c1ccco1)N1CCN(c2nc3ccc(Cl)cc3n3cnnc23)CC1	-0.522
CC1=C(C(=O)NCCCN2CCOCC2)C2(CCN(Cc3ccccc3)CC2)OC1=O	5.8
O=C(CSc1nc2ccccc2[nH]1)NCc1ccco1	1.42
CCn1ncc(CNC(=O)c2cnn3c(C(F)F)cc(-c4ccc(C)cc4)nc23)c1C	0.778
Cc1ccc(CNC(=O)C2CCCN(c3ncnc4c3nc3n4CCCCC3)C2)cc1 (stereo not shown)	6.14
CC(C)CCNC(=O)CN1Cc2ccccc2C1=O	4.36

SMILES	% Inhibition @ 10 uM [%]
CC1(NC(=S)N2CCCCC2)CCS(=O)(=O)C1 (stereo not shown)	-2.65
Cc1c(C(=O)N2CCCCC2c2cccnc2)sc2nc3n(c(=O)c12)CCCCC3 (stereo not shown)	2.07
O=[N+]([O-])c1ccc(S(=O)(=O)Nc2ccc(Br)cc2)cc1	-4.61
O=C(c1ccco1)N1CCN(CCOc2ccc(F)cc2)CC1	2.25
Nc1nc2nonc2nc1N	-4.27
Cc1cc(Cl)ccc1OC(C)C(=O)N1CCN(c2ccccc2)CC1 (stereo not shown)	-1.79
Cc1ccc(Cl)cc1-n1nnc(-c2nc(-c3cccnc3)no2)c1N	1.66
CC(C)n1c(-c2cccs2)nc2ccccc21	-0.551
O=C(Nc1ccc2c(c1)OCO2)c1nn2c(C(F)(F)F)cc(-c3cccs3)nc2c1Cl	-3.44
COc1cccc2c1cc1c(=O)n(CC(=O)NC3CCCc4ccccc43)nc(C)n12 (stereo not shown)	1.68
COc1ccc(/C=C2\SC(=O)N(Cc3ccc(F)cc3)C2=O)cc1O	15.9
COc1ccc(NC(=O)CSc2nc3c(cc2C#N)CCCCC3)cc1	2.85
O=C(CN1C(=O)CSc2ncccc21)N1CCOCC1	-2.37
COc1ccc(C(=O)Nc2ccc(Cl)cc2C(=O)Nc2ccncc2)cc1	-3.87
Cc1ccc(C(=O)Nc2sc3c(c2C(=O)N2CCN(C)CC2)CCC(C)C3)cc1 (stereo not shown)	-0.171
COc1ccc(C2=N/C(=C\c3ccccc3F)C(=O)O2)c(Cl)c1	3.42
Cc1onc(-c2ccccc2Cl)c1C(=O)NCC(=O)O	6.11
O=C(O)c1nccnc1C(=O)Nc1ccc(Cl)c(Cl)c1	-2.18
COc1cccc(C2=NS(=O)(=O)N(C)C(C(=O)N3CC4(C)CC3CC(C)(C)C4)=C2)c1 (stereo not shown)	-1.06
CN1CCN(C(=O)CSc2nc3ccc(NC(=O)c4ccccc4Cl)cc3s2)CC1	-3.16
CC(C)CS(=O)(=O)C1=NSC2=NC(=O)/C(=C\c3ccc(Br)o3)C(=N)N21	-1.58
Cc1c(Br)c(-c2nnc(S)n2Cc2ccco2)nn1C	-2.9
O=C(NCCN1CCOCC1)Nc1cnc2ccccn2c1=O	3.66
C=CCN1C(=O)/C(=C\c2c(C)[nH]c3ccccc23)C(=O)NC1=S	-0.712
Cc1cc(C)cc(Oc2coc3cc(O)ccc3c2=O)c1	-3.19

Reference: PMC6919601, “Identification of Plasmodium dipeptidyl aminopeptidase allosteric inhibitors by high throughput screening” (PLoS ONE, 2019)
